The RNAGym collection of RNA variant scans (doi:10.1073/pnas.2313332121)
This sample is rich in variants without activity.

B1: TPR 5TU (parent)
chain: GGAUCUUCUCGAUCUAACAAAAAAGACAAAUCUGCCACAAAGCUUGAGAGCAUCUUCGGAUGCAGAGGCGGCAGCCUUCGGUGGCGCGAUAGCGCCAACGUUCUCAACUAUGACACGCAAAACGCGUGCUCCGUUGAAUGGAGUUUAUCAUG

Variants of: B1
Test: polymerase ribozyme fitness, log enrichment relative to wild type (log ratio); higher = more active; in vitro selection for triplet polymerase activity
Summary of the method: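 Both subunits of a heterodimeric triplet polymerase ribozyme were given their own mutant library, built by PCR and transcribed. Each library was annealed with a biotinylated primer, the partner subunit and triplets, incubated frozen at −7 °C, and its extended constructs gel-excised, captured on streptavidin beads and amplified by RT-PCR, all in one round done in triplicate. Fitness is the logarithm of genotype enrichment relative to wild-type enrichment, with replicates averaged by inverse-variance weighting. That logarithm is base 2, and Illumina-sequenced genotypes needed ≥10 input reads and ≥1 read per output.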

| Variant | polymerase ribozyme fitness (log ratio) |
| --- | --- |
| GGAUGUUCUCGAUCUAACACAAAAGACAAAUCUGCCACAAAGCUUGAGAGCAUCUUCGGAUGCAGAGGCGGCAGCCUUCGGUGGCGCGAUAGCGCCAACGUUCUCAACUAUGACACGCAAAACGCGUGCUCCGUUGAAUGGAGUUUAUCAUG [C5G A20C] | -0.472 |
| GGAUGUUCUCGAUCUAACACAAAAGACAAAUCUGCCACAAAGCUUGAGAGCAUCUUCGGAUGCAGAGGCGGCAUCCUUCGGUGGCGCGAUAGCGCCAACGUUCUCAACUAUGUCACGCAUAACGCGUGCUCCGUUGAAUGGAGUUUAUCAUG [C5G A20C G74U A113U A120U] | ≤ -4.2 |
| GGAUGUUCUCGAUCUAACACAAAAGACAAAUCUGCCACAAAGCUUGAGAGCAUCUUCGGAUGCAGAGGCGGCAGCCUUCGGUGGCGCCAUAGCGCCUACGUUAUCAACUAUGACACGCAAAACGCGUCCUCCGCUGAAUGGAGUUCAUCAUG [C5G A20C G88C A97U C103A G128C U134C U146C] | ≤ -4.2 |
| GGAUGUUCUCGAUCUAACAGAAAAGAAAAAUCUGCCACAAAGCUUGAGAGCAUCUUCGGAUGCAGAGGCGGUAGCCUUCGGUGGCGCGAUAGCGCCAACGUUCUCAACUAUGACACGCAUAACGCGUGCUCCGUUGAAUGGAGUUUAUCAUG [C5G A20G C27A C72U A120U] | ≤ -4.2 |
| GGAUGUUCUCGAUCUAACAUAAAAGACAAAUCUGCCACAAAGCUUGAGAGCAUCUUCGGAUGCAGAGGCGGCAGACUUCGGUGGCGCGAUAGCGCCAACGUUCUCAAGUAUGACACGCAAAACGCGUGCUCCGUUGAAUGGAUUUUAUCAUG [C5G A20U C75A C108G G143U] | ≤ -4.2 |
| GGAUGUUCUCGAUCUAACAUAAAAGACAAAUCUUCCACAAAGCUUGAGAGCAUCUUCGGAUGCAGAGGCGGCAGCCUUCGGUGGCGCGAUAGCGGCAACGUUCUCAACUAUGACACGCAAAACGCGUGCUCCGUUGAAUGGAGUUUAUCAUG [C5G A20U G34U C95G] | ≤ -4.2 |
| GGAUGUUCUCGAUCUAACAACAAAGACAUAUCUGCCACAAAGCUUGAGAGCAUCUUCGGAUGCAGAGGCGGCAGCCUUCGGAGGCGCGAUAGCACCAACGUUCUCAACUAUGACACGCAAAACGCGUGCUCCGUUCAAUGGAGUUUAUCACG [C5G A21C A29U U82A G94A G136C U151C] | ≤ -4.2 |
| GGAUGUUCUCGAUCUAACAACAAAGACAAAUCUGCCACAAAGCUUGAGAGCAUCUACGGAUGCAGAGACGGCAGCCUUCGGUGGCGCGAUAGCGCCAACGUUCUCAACUAUGUCACGCAAAACGCGUGCUCCGUUGAAUGGAGUUUAUCAUG [C5G A21C U56A G68A A113U] | ≤ -4.2 |
| GGAUGUUCUCGAUCUAACAAUAAAGACAAAUCUGCCUCAAAGCUUGAGAGCAUCUUCGGAUGCAGAGGCGGCAGCCUUCGGUUGCGCGUUAGCUCCAACGUUCUCAACUAUGACACGCAAAACGCGUGCUCCGUUGAAUGGAGUUUAUCAUG [C5G A21U A37U G83U A89U G94U] | ≤ -4.2 |
| GGAUGUUCUCGAUCUAACAAAUAAGACAAUUCUGCCACAAAGCUUGAGAGCAUCUUCGGAUGAAGAGGCGGCAGCCUUCGGUGGCGCGAUAGCGGCAACGUUCUCAACUAUGACACGCAAAUCGCGUGCUCCUUUGAAUGGAGUUUAUCAUG [C5G A22U A30U C63A C95G A122U G133U] | ≤ -4.2 |
| GGAUGUUCUCGAUCUAACAAAUAAGACAAAUCUGCCACAAAGCUUGAGAGCAUCUUCGGGUGCAGAGGCAGCAGCCUUCGGUGGCGCGAUAGCGCUAACGUUCUCAACUAUGACACGCAAAACGCGUGCUCCGUUGAAUGGAGUUUAUCAUG [C5G A22U A60G G70A C96U] | ≤ -4.2 |
| GGAUGUUCUCGAUCUAACAAAACAGACAAAUCUGCCACAAAGCUUGAGAGCAUCUUCGGAUGCAGGGGUGGCAGCCUUCGGUGGCGCGAUGGCGCCAACGUUCUGAACUAUGACACGCAUAACGCGUGCUCCGUUGAAUGGAGUUUAUCAUG [C5G A23C A66G C69U A91G C105G A120U] | ≤ -4.2 |
| GGAUGUUCUCGAUCUAACAAAACAGACAAAUCUGCCACAAAGCUUGAGAGCAUCUUCGGAUGCAGAGCCGGCAGCCUUCGCUCGCGCGAUAGCGCCAACGGUCUCAACUAUGACACGUAAAACGCGUGCUCCGUUGAAUGUAGUUUAUCAUG [C5G A23C G68C G81C G83C U101G C118U G141U] | ≤ -4.2 |
| GGAUGUUCUCGAUCUAACAAAACAGACAAAUCUGCCACAAAGCUUGAGAGCAUCUUCGGAUGCAGAGGCGGCAGCCUUCGCUGACGCGAUAGCGACAACGUUCUCAACUAUGACACGCAAAACGCGUGCUCCGUUGAAUGGAGUUUAUCAUG [C5G A23C G81C G84A C95A] | ≤ -4.2 |
| GGAUGUUCUCGAUCUAACAAAAGAGACAAAUCUGCCACAAAGCUUGAGUGCAUCUUCGGAUGCAGAGGCGGCAGCCGUCGGUGGCACGAUAGCGCCAACGUUCUCAACUAUGACACGCAAAACGCGUGCUCCGUUGGAUGGAGUUUAUCAUG [C5G A23G A49U U77G G86A A137G] | ≤ -4.2 |
| GGAUGUUCUCGAUCUAACAAAAUAGACAAAUCUGCCACAAAGCUUGAGAGCAUCUUCGGAUGCAGAGGCGGCAGCCUUCGGUGGUGCGAUAGCGCCAAGGUUCUCUACUAUGACACGCAAAACGCGUGCUCCGUUGAAUGGAGUUUAUCAUG [C5G A23U C85U C99G A106U] | ≤ -4.2 |
| GGAUGUUCUCGAUCUAACAAAAACGACAAAACUGCCACAAAGCUUGAGAGCAUCUUCGGAUGCAGAGGCGGCAGCCUUGGGUGACGCGAUAGCGCCAACGUUCUCAACUAAGACACGGAAAACGCGUGCUCCGUUGAAUGGAGUUUAUCAUG [C5G A24C U31A C79G G84A U111A C118G] | ≤ -4.2 |
| GGAUGUUCUCGAUCUAACAAAAAUGACAAAUCUGCCACAAAGCUUGAGAGCAUCUUCGGAUGCAGAGGCGGCAGCCUUCGCUGGCGCGAUAGCGCCAACGUUCUCAACUAUGACACGCAAAACGCGUGCUCCGUUGAAUGGAGUUUAUCAUG [C5G A24U G81C] | -0.313 |
| GGAUGUUCUCGAUCUAACAAAAAAGCCAAAUCUGCCACAAAGCUUGAGAGCAUCUUCGGAUCCCGAGGCGGCAGCCUUCGGUGUCGCGAUCGCGCCAACGUUCUCAACUAUGACACGCAAAACGCGUGCUCCGUUGAAUGGAGGUUAACAUG [C5G A26C G62C A64C G84U A91C U144G U148A] | ≤ -4.2 |
